# For part of these data: What follows is the remainder of the data, with few or none of the hits. A structure can be active in one record and inactive in another. This is a selection; strong and weak results do not stand in their true shares. Records with an inconclusive call do not appear. Activity calls are given as the source filed them. How the source made its calls, unless noted: active means hit-call score of the fitted dose curve at least 0.9, where 1 is the maximum; inactive means score below 0.9.
# Experiments:
# [1] = target: Peroxisome proliferator-activated receptor gamma (Homo sapiens) (UniProt P37231); test: ATG_PPARg_TRANS: Attagene TRANS-FACTORIAL HepG2 Assay for human Peroxisome Proliferator-activated Receptor-gamma (PPARg) (AID 2283007; active means hit-call score of the fitted dose curve at least 0.9, where 1 is the maximum)
# Chain of UniProt P37231 (P37231 whole entry, looked up): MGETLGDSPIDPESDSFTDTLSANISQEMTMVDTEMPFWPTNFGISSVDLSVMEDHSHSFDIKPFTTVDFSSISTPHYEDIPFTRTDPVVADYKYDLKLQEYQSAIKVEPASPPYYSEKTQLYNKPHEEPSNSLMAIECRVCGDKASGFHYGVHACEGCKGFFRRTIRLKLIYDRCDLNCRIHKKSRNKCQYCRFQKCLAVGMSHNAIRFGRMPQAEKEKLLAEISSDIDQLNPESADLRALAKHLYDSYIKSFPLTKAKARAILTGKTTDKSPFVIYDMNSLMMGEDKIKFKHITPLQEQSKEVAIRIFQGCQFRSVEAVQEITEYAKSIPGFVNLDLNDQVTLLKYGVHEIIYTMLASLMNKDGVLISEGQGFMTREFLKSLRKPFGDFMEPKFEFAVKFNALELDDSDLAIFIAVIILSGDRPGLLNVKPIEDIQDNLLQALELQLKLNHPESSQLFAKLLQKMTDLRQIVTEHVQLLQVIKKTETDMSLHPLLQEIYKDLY
# In short: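 Twenty-four hours after chemical dosing of transiently transfected HepG2 cells, isolated RNA was converted to cDNA, reporter sequences amplified and 6-FAM-labelled, then HpaI-digested and analysed by capillary electrophoresis. Signal increase against DMSO was fitted.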
# [2] = read-out: Transforming growth factor beta 1 (TGFb1), TGFB1 (gene 7040); test: BSK_KF3CT_TGFb1: BioMAP Diversity Plus: KF3CT Assay for Transforming growth factor beta 1 (TGFb1) Biomarker Activity (AID 2283072); conditions: actives raise or lower the signal; primary human keratinocytes with fibroblasts
# In short: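 KF3CT co-culture (keratinocytes + fibroblasts), 24 h exposure → TGF-b1 ELISA → bidirectional fit, DMSO = baseline. Parallel SRB total-protein staining (0.1% SRB, 10% TCA fixation, 560 nm) for cytotoxicity.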
# [3] = target: human Peroxisome Proliferator-activated Receptor delta (PPARd), PPARD (gene 5467) (UniProt Q03181); test: ATG_PPARd_TRANS: Attagene TRANS-FACTORIAL HepG2 Assay for human Peroxisome Proliferator-activated Receptor delta (PPARd) (AID 2283002; active means hit-call score of the fitted dose curve at least 0.9, where 1 is the maximum)
# Chain of UniProt Q03181 (Q03181 whole entry, looked up, the tested form may be a part): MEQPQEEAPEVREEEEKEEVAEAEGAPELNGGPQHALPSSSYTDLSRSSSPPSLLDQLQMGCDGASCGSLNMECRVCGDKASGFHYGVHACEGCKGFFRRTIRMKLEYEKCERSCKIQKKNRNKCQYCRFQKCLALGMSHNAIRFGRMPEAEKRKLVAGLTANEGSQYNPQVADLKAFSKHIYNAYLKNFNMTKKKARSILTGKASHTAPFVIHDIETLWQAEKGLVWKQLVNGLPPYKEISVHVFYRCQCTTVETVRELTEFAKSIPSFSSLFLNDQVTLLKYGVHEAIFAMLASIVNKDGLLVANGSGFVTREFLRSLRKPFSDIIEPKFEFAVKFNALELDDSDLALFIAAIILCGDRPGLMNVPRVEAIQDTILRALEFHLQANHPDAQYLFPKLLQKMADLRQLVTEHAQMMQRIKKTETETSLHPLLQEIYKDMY
# In short: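 Measured quantity: GAL4-UAS reporter transcript induction in HepG2 after 24 h chemical dosing, with NR-Gal4 chimeras supplied by transient transfection. Detection by RT-PCR and capillary electrophoresis; upward fit against DMSO.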
# [4] = target: human Thyroid Receptor alpha (THRa1), THRA (gene 7067) (UniProt P10827); test: ATG_THRa1_TRANS: Attagene TRANS-FACTORIAL HepG2 Assay for human Thyroid Receptor alpha (THRa1) (AID 2283014; active means hit-call score of the fitted dose curve at least 0.9, where 1 is the maximum)
# Chain of UniProt P10827 (P10827 whole entry, looked up, the tested form may be a part): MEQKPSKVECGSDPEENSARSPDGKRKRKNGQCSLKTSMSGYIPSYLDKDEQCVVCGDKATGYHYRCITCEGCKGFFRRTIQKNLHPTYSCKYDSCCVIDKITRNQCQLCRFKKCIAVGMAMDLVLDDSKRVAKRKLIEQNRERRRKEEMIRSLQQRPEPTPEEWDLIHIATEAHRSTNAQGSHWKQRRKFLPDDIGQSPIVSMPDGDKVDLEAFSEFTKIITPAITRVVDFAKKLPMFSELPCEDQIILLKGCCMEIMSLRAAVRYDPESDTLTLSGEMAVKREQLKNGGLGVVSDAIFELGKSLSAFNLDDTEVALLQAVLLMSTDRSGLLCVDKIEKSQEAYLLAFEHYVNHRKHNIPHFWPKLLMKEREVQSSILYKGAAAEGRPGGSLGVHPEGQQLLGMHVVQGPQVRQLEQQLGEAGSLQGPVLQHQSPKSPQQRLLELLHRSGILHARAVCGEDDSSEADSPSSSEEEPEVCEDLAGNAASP
# In short: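 First, HepG2 cells receive multiple GAL4-UAS reporter units and the chimeric receptor. They are then dosed for 24 h, after which RNA is reverse-transcribed, amplified, labelled, HpaI-cut and sized by capillary electrophoresis; gain relative to DMSO is scored.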
# [5] = target: human Retinoid X Receptor beta (RXRb), RXRB (gene 6257) (UniProt P28702); test: ATG_RXRb_TRANS: Attagene TRANS-FACTORIAL HepG2 Assay for human Retinoid X Receptor beta (RXRb) (AID 2283013; active means hit-call score of the fitted dose curve at least 0.9, where 1 is the maximum)
# Chain of UniProt P28702 (P28702 whole entry, looked up, the tested form may be a part): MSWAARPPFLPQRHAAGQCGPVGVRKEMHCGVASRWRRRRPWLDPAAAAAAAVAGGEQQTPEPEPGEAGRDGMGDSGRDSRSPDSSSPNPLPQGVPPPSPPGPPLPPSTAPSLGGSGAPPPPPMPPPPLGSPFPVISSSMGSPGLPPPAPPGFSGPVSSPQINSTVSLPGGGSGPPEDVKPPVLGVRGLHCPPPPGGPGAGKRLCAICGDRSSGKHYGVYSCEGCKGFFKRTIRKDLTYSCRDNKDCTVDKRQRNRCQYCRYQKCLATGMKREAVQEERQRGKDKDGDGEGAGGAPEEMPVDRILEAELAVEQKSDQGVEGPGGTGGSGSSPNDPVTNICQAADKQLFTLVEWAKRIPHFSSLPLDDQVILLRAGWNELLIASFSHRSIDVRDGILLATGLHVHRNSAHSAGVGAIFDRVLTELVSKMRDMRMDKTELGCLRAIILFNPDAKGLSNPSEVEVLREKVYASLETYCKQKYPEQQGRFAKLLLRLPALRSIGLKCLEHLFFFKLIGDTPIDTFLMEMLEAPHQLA
# In short: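 Chimeric receptor-Gal4 activity was assessed in transiently transfected human HepG2 cells after 24 h exposure. Transcripts from GAL4-UAS reporters were quantified by fluorescent RT-PCR and capillary electrophoresis, with DMSO as negative control and baseline.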
# [6] = read-out: E-selectin (Homo sapiens) (UniProt P16581); test: BSK_3C_Eselectin: BioMAP Diversity Plus: 3C Assay for Eselectin Biomarker Activity (AID 2283015); conditions: actives raise or lower the signal; primary human endothelial cells (HUVEC)
# Chain of UniProt P16581 (P16581 whole entry, looked up): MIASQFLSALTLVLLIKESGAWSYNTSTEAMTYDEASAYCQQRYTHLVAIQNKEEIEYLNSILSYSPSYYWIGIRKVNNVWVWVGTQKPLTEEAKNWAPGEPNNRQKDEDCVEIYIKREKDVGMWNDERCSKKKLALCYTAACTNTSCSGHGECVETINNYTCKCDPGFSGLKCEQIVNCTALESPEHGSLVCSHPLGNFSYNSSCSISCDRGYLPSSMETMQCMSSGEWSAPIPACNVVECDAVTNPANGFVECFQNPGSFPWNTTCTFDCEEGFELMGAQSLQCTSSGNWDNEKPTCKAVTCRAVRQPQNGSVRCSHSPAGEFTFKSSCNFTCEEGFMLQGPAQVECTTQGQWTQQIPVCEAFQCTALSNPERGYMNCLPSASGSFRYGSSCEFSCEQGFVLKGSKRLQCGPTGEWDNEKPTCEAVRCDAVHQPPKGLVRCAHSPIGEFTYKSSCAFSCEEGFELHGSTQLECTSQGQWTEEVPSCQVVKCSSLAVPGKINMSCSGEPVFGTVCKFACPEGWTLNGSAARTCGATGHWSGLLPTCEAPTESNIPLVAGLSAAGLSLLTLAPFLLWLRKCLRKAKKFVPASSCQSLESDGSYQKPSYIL
# In short: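 Human vascular endothelium from umbilical vein is exposed to test chemicals for 24 h. E-selectin levels are read by ELISA and compared with DMSO controls.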
# [7] = read-out: Interleukin-8 (IL8), CXCL8 (gene 3576); test: BSK_hDFCGF_IL8: BioMAP Diversity Plus: hDFCGF Assay for Interleukin-8 (IL8) Biomarker Activity (AID 2283058); conditions: actives raise or lower the signal; primary human foreskin fibroblasts
# In short: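 IL-8 levels from compound-treated primary human fibroblasts were read by ELISA at 24 h, with DMSO serving as baseline for bidirectional fitting.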
# [8] = read-out: Fatty Acid-Binding Protein 1 (FABP1), FABP1 (gene 2168); test: LTEA_HepaRG_FABP1: Life Technologies and Expression Analysis (LTEA) Assay for Fatty Acid-Binding Protein 1 (FABP1) using HepaRG (AID 2283494); conditions: actives raise or lower the signal; mRNA level, 48 h
# In short: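 Values reflect bidirectional concentration-response fitting of FABP1 mRNA change against 0.5% DMSO controls. Human HepaRG cultures received eight half-log doses (top 100 uM) for 48 h; expression quantified by TaqMan qRT-PCR with housekeeping-gene normalization.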
# [9] = CCTE_Shafer_MEA_dev_per_network_spike_spike_percent: CCTE's Neural Network Formation Assay for Percent of Spikes in a Network Spike, Shafer Lab (AID 2284054)
# In short: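 Developing networks of rat cortical neurons are dosed at day 0 and recorded extracellularly four times up to day 12. The endpoint is the area under the curve of percent spikes in network spikes, fitted in the negative direction relative to DMSO.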
# [10] = IUF_NPC3_neuronal_differentiation_120hr: Leibniz Research Institute for Environmental Medicine (IUF) 120-hour Neuronal Differentiation Assay (NPC3) (AID 2284301)
# In short: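 Neuronal differentiation of primary human neural progenitors measured by high-content imaging: percent TUBB3+ of Hoechst+ nuclei within migrated area at 120 h, seven-point serial dilution plus solvent control, gain or loss relative to DMSO.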
structure (smiles),measurement,setting,value
O=C(O)C1(c2ccc3c(c2)OC[C@H](Cc2ccc(-c4ccccc4)cc2)[C@H]3O)CCCC1,AC50,[1],active: 4.72 µM
same,AC50,[2],active: 20 µM
N#Cc1cc(I)c(O)c(I)c1,outcome,[3],inactive
c1cc(OCC2CO2)ccc1Cc1ccc(OCC2CO2)cc1 (configuration not stated),outcome,[3],inactive
same,AC50,[1],active: 33.4 µM
same,outcome,[4],inactive
COc1nc(C)nc(NC(=O)NS(=O)(=O)c2ccccc2Cl)n1,outcome,[5],inactive
COP(=O)(OC)OC=C(Cl)Cl,AC50,[6],active: 37 µM
same,outcome,[7],inactive
same,outcome,[8],inactive
same,outcome,[9],inactive
same,AC50,[10],active: 9.72 µM

# — PubChem BioAssay (EPA / NIEHS)
